# Measurements from the supplement of paper PMC10037445.
# The full ranking holds about 2,900 compounds; the median of “IRF Lucia reporter activity, fold change vs agonist alone” is about 0.9, and the highest 2% start at about 2.8. This is one part of the list.
# What was measured:
# RAW-Dual [1] = assay: IRF Lucia reporter activity, fold change vs agonist alone; cytotoxicity flag (confluency mask): not cytotoxic; higher = enhanced IRF activity
# Outline: (§1)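 Library stock was pin-tooled at 50 nL into 384-well plates of RAW-Dual macrophages (50,000 cells/well, DMEM), followed 1 h later by a PRR agonist, and the cells were kept at 37 °C, 5% CO2. Supernatant collected after 20 hours was read for IRF by QuantiLuc luminescence and for NF-κB by QuantiBlue absorbance at 620 nm. Reporter activity is fold change over agonist-alone wells, and a well counted as cytotoxic when its IncuCyte confluency was below 70% of agonist controls in both mask sets.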
# RAW-Dual [2] = assay: IRF Lucia reporter activity, fold change vs agonist alone; higher = enhanced IRF activity; details: library stock concentration (final ~1000-fold dilution): 10 mM, agonist: MPLA (TLR4) […]
# Outline: as §1
# RAW-Dual [3] = assay: IRF Lucia reporter activity, fold change vs agonist alone; cytotoxicity flag (confluency mask): cytotoxic (confluency <70% of control); higher = enhanced IRF activity
# Outline: as §1
# [4] = agonist: 3'3'-cGAMP (STING) 10 ug/mL
# [5] = cytotoxicity flag (confluency mask): not cytotoxic
# [6] = cytotoxicity flag (confluency mask): cytotoxic (confluency <70% of control)
smiles,measurement,setting,value
CC(C)=CCC/C(C)=C/CC/C(C)=C/CSc1ccccc1C(=O)O (library stock concentration (final ~1000-fold dilution): 10 mM),IRF Lucia reporter activity,RAW-Dual [1]; [4],0.776
same,IRF Lucia reporter activity,RAW-Dual [1]; agonist: LPS (TLR4) 0.1 ug/mL,0.854
Br.CN(C)CCCC1(c2ccc(F)cc2)OCc2cc(C#N)ccc21 (stereo not drawn) (library stock concentration (final ~1000-fold dilution): 10 mM),IRF Lucia reporter activity,RAW-Dual [1]; [4],0.98
same,IRF Lucia reporter activity,RAW-Dual [1]; agonist: LPS (TLR4) 0.1 ug/mL,1.08
Br.CN(C)CCCC1(c2ccc(F)cc2)OCc2cc(C#N)ccc21 (stereo not drawn),IRF Lucia reporter activity,RAW-Dual [2]; [5],1.1
O=C1C(O)=C(O)OC1C(O)CO (stereo not drawn) (library stock concentration (final ~1000-fold dilution): 10 mM),IRF Lucia reporter activity,RAW-Dual [1]; [4],0.914
same,IRF Lucia reporter activity,RAW-Dual [1]; agonist: LPS (TLR4) 0.1 ug/mL,1.11
CC(NC(=O)c1ncnc(N)c1Cl)c1ncc(C(=O)Nc2cc(C(F)(F)F)c(Cl)cn2)s1 (stereo not drawn) (library stock concentration (final ~1000-fold dilution): 10 mM),IRF Lucia reporter activity,RAW-Dual [1]; [4],0.906
same,IRF Lucia reporter activity,RAW-Dual [1]; agonist: LPS (TLR4) 0.1 ug/mL,0.968
CC(NC(=O)c1ncnc(N)c1Cl)c1ncc(C(=O)Nc2cc(C(F)(F)F)c(Cl)cn2)s1 (stereo not drawn),IRF Lucia reporter activity,RAW-Dual [2]; [5],0.914
CCCCCCCCCCCC1=C(O)C(=O)C=C(O)C1=O,IRF Lucia reporter activity,RAW-Dual [2]; [6],0.343
CCCCCCCCCCCC1=C(O)C(=O)C=C(O)C1=O (library stock concentration (final ~1000-fold dilution): 10 mM),IRF Lucia reporter activity,RAW-Dual [3]; [4],0.258
same,IRF Lucia reporter activity,RAW-Dual [3]; agonist: LPS (TLR4) 0.1 ug/mL,0.214
CCC1OC(=O)C(C)C(OC2CC(C)(OC)C(O)C(C)O2)C(C)C(OC2OC(C)CC(N(C)C)C2O)C(C)(O)CC(C)C(=O)C(C)C(O)C1(C)O.N#CS (stereo not drawn) (library stock concentration (final ~1000-fold dilution): 10 mM),IRF Lucia reporter activity,RAW-Dual [1]; [4],0.737
same,IRF Lucia reporter activity,RAW-Dual [1]; agonist: LPS (TLR4) 0.1 ug/mL,1.51
CCC1OC(=O)C(C)C(OC2CC(C)(OC)C(O)C(C)O2)C(C)C(OC2OC(C)CC(N(C)C)C2O)C(C)(O)CC(C)C(=O)C(C)C(O)C1(C)O.N#CS (stereo not drawn),IRF Lucia reporter activity,RAW-Dual [2]; [5],1.15
N#CC1CC2CC2N1C(=O)C(N)C12CC3CC(CC(O)(C3)C1)C2 (stereo not drawn),IRF Lucia reporter activity,RAW-Dual [2]; [5],0.878
N#CC1CC2CC2N1C(=O)C(N)C12CC3CC(CC(O)(C3)C1)C2 (stereo not drawn) (library stock concentration (final ~1000-fold dilution): 10 mM),IRF Lucia reporter activity,RAW-Dual [1]; [4],0.977
same,IRF Lucia reporter activity,RAW-Dual [1]; agonist: LPS (TLR4) 0.1 ug/mL,1.05
O=C(O)CNC(=O)c1nc(Cl)c2ccccc2c1O (library stock concentration (final ~1000-fold dilution): 10 mM),IRF Lucia reporter activity,RAW-Dual [1]; [4],0.934
same,IRF Lucia reporter activity,RAW-Dual [1]; agonist: LPS (TLR4) 0.1 ug/mL,0.912
CCOCc1nc2c(N)nc3ccccc3c2n1CC(C)(C)O (library stock concentration (final ~1000-fold dilution): 3.2 mM),IRF Lucia reporter activity,RAW-Dual [1]; [4],0.759
same,IRF Lucia reporter activity,RAW-Dual [1]; agonist: LPS (TLR4) 0.1 ug/mL,0.422
Cc1nn(C)c2c1C(c1ccc(C(F)(F)F)cc1)C(C#N)=C(N)O2 (stereo not drawn) (library stock concentration (final ~1000-fold dilution): 10 mM),IRF Lucia reporter activity,RAW-Dual [1]; [4],0.682
same,IRF Lucia reporter activity,RAW-Dual [1]; agonist: LPS (TLR4) 0.1 ug/mL,0.94
CN1CCCN(C(=O)c2cccc(-c3ccc(/C=C4/C(=O)Nc5ccc(Cl)cc54)o3)c2)CC1.Cl (library stock concentration (final ~1000-fold dilution): 10 mM),IRF Lucia reporter activity,RAW-Dual [3]; [4],0.02
same,IRF Lucia reporter activity,RAW-Dual [3]; agonist: LPS (TLR4) 0.1 ug/mL,0.0459
CN1CCCN(C(=O)c2cccc(-c3ccc(/C=C4/C(=O)Nc5ccc(Cl)cc54)o3)c2)CC1.Cl,IRF Lucia reporter activity,RAW-Dual [2]; [6],0.0337
COc1ccc2cc1Oc1ccc(cc1)CC1c3c(cc4c(c3Oc3cc5c(cc3OC)CCN(C)C5C2)OCO4)CCN1C (stereo not drawn),IRF Lucia reporter activity,RAW-Dual [2]; [6],0.205
COc1ccc2cc1Oc1ccc(cc1)CC1c3c(cc4c(c3Oc3cc5c(cc3OC)CCN(C)C5C2)OCO4)CCN1C (stereo not drawn) (library stock concentration (final ~1000-fold dilution): 10 mM),IRF Lucia reporter activity,RAW-Dual [3]; [4],0.704
same,IRF Lucia reporter activity,RAW-Dual [3]; agonist: LPS (TLR4) 0.1 ug/mL,0.12
CN(C)CCC=C1c2ccccc2C=Cc2ccccc21.Cl,IRF Lucia reporter activity,RAW-Dual [2]; [6],1.17
CN(C)CCC=C1c2ccccc2C=Cc2ccccc21.Cl (library stock concentration (final ~1000-fold dilution): 10 mM),IRF Lucia reporter activity,RAW-Dual [3]; [4],0.475
same,IRF Lucia reporter activity,RAW-Dual [3]; agonist: LPS (TLR4) 0.1 ug/mL,1.69
CC(=O)c1ccc2c(c1)c1cc(C(C)=O)ccc1n2CCNC(C)C.Cl (library stock concentration (final ~1000-fold dilution): 10 mM),IRF Lucia reporter activity,RAW-Dual [3]; [4],0.00914
same,IRF Lucia reporter activity,RAW-Dual [3]; agonist: LPS (TLR4) 0.1 ug/mL,0.0119
Cc1cc(-c2ccc(CC(=O)Nc3ccc(-c4cccnc4)cc3)cc2)ccn1 (library stock concentration (final ~1000-fold dilution): 10 mM),IRF Lucia reporter activity,RAW-Dual [1]; [4],0.6
same,IRF Lucia reporter activity,RAW-Dual [1]; agonist: LPS (TLR4) 0.1 ug/mL,0.636
Cc1cc(-c2ccc(CC(=O)Nc3ccc(-c4cccnc4)cc3)cc2)ccn1,IRF Lucia reporter activity,RAW-Dual [2]; [5],0.665
COc1ccc(C2CC(c3ccccc3)=NN2c2ccc(S(N)(=O)=O)cc2)cc1 (stereo not drawn) (library stock concentration (final ~1000-fold dilution): 10 mM),IRF Lucia reporter activity,RAW-Dual [1]; [4],1.13
same,IRF Lucia reporter activity,RAW-Dual [1]; agonist: LPS (TLR4) 0.1 ug/mL,0.969
O=C(NC1=CC(=O)[C@H]2O[C@H]2[C@H]1O)c1ccccc1O (library stock concentration (final ~1000-fold dilution): 10 mM),IRF Lucia reporter activity,RAW-Dual [1]; [4],0.069
same,IRF Lucia reporter activity,RAW-Dual [1]; agonist: LPS (TLR4) 0.1 ug/mL,0.415
